The supplement of paper PMC12632987
In all, about 1,800 sequences were measured (“median log2 fold change of GCK-ALFA target abundance (FLAG IP / Myc IP barcode read proportion)”: median about 0.14, lowest 2% from about -0.84 on). The list shows a part of the results.

T1: TRAF2, Q12933
T1 chain: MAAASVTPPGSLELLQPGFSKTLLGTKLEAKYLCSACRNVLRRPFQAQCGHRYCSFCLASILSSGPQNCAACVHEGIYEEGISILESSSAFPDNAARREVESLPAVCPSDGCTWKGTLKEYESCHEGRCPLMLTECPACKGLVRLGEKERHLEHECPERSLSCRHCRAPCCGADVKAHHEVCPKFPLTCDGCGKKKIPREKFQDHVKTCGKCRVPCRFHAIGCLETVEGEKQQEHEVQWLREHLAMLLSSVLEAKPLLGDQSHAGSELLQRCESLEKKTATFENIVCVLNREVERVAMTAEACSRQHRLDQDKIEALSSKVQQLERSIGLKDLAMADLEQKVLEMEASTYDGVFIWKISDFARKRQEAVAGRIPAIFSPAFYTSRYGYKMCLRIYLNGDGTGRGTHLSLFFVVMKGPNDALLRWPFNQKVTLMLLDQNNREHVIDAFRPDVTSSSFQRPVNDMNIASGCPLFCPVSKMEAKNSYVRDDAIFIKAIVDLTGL

B1: traf2_out_9_108_2583 (protein)
chain: MSEEERLEATFEAVLALVEEFKATNALTPEQLESLDAAIEQAKRLREEGEKRTAIVLLAIDLARIASEVGDEATAALLERLAAIDPRAAAAAARMARLLK
B2: traf2_out_16_104_1426 (protein)
chain: EEEKEKRFEEIIKRYEEIAERANKIANELYKLMQKASPEEKTKLSDALVEASELRRKALEAAIEAEKAKKEGGDLKEMEKKLEELEKRLKELEKKAKELK
B3: traf2_out_9_108_2591 (protein)
chain: MTEEEKLDEIYEKVLALVEEALERFDFPEELREALDASIEQAKKLYENGEKRTAIILLAIDLVSISYELGDEVVEWVLERLEEIDEIAASAARRRYELLK
B4: traf2_out_20_3_2149 (protein)
chain: EELEKELEEELEEALKILKEAAKLADEETAKRLEELAKRLKKSRELSYSDRLVVVSEIRREVRLLQQEALAAGKEELAKLLEEAAEELNRAANLLMKIIE
B5: traf2_out_18_117_1768 (protein)
chain: SERQEVIAELEAIAEELARAASELGRAVLENWEKLTPEEKSEAMDVLADLSEVRRRALLLIQQIREQNLPLEEARAQLEALRVEAEAALARARARLERIR
B6: traf2_out_17_178_1723 (protein)
chain: SKEEYRKKISELTDELIDLSEEAAERLLALAEAEGRLSPEELAALREARRRGSPNDTLALMERAAPRLSSRAEAEALIEEFRRRSRELAKKIAEAYKKYE
B7: traf2_out_1_27_1023 (protein)
chain: SDEALTALIRRTDREIAAVGLEEAREVVREALREAAREGLGDARLVALTLIASQLDKERAEAIREAALEAFRELGAPQEVIDELARRADSIIARQEKVLA
B8: traf2_out_17_162_1545 (protein)
chain: GSLEEKLKKLEEELEKLRKKREELEKKLPELPKLSKEELTDLLVEASEARREARLLAEEIEELKKEIGEEKAKKLAEEARKIAEELQRIANEIYKELEKK

Molecular target: T1, TRAF2, Q12933
Test: median log2 fold change of GCK-ALFA target abundance (FLAG IP / Myc IP barcode read proportion) (log2 ratio); each designed protein is fused to an ALFA-tag nanobody in HEK293 cells to bring the named protein to FLAG-tagged glucokinase (GCK); Myc marks an untargeted standard; higher = target protein stabilised (more abundant)
Details: target protein: 3xFLAG-MCP-GCK-ALFA reporter; HEK293 landing pad (RPLP)
Method: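 LABEL-seq trans screen in HEK293 landing-pad cells. Each de novo designed 100-aa effector handle, binding the indicated effector (E3 ligase, DUB or autophagy protein), is fused to a constant NbALFA target handle and induced with 2 ug/mL doxycycline. A FLAG-MCP-GCK-ALFA target and a Myc-MCP standard reporter were transfected, and after 48 h circRNA barcodes were recovered by anti-FLAG and anti-Myc IP and sequenced. The value is the median across barcodes (at least 3 per design) of log2(FLAG/Myc read-proportion ratio), with the two transfection replicates pooled. Negative values mean degradation and positive values mean stabilisation of the target.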

Row | Binder | median log2 fold change
1 | B1 | -0.0764
2 | B2 | 0.606
3 | B3 | -0.0587
4 | B4 | 0.0353
5 | B5 | 0.0268
6 | B6 | 0.389
7 | B7 | 0.201
8 | B8 | 0.35
